# Source: PubChem BioAssay AID1508623 (National Center for Advancing Translational Sciences (NCATS), 2021)
# Out of some 48,000 compounds screened, about 450 (0.94%) were called active. The shares of active, inactive and inconclusive entries below differ from those in the screen. Calls come from the whole dose curve; as a rule, active = well fitted inhibition curve with a large enough effect; inconclusive = small, poorly fitted or top-dose-only effect; inactive = no such curve, though single readings can be large or run the other way. Where the call is inconclusive, the potency comes from a doubtful curve fit.
# Experiment: Primary qHTS for Identification of Small Molecule Inhibitors of Huntingtin Promoter Activity; note: nearly all actives have a fitted effect of over 50% in size
# Settings: HEK293 HTT promoter firefly luciferase reporter (activity 0% = vehicle and -100% = no light), 24 h; activity change, negative = inhibition: at 57.5 µM (top of the series)
# Summary of the method: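 HEK293 cells carrying firefly luciferase reporters were seeded at 2,500 per well in Opti-MEM and cultured for 24 h. They were then treated with compounds at up to 57.5 uM final for 24 h at 37 degrees C before Dual-Glo luminescence readout.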
# Potency is the fitted concentration of half-maximal effect; tags give direction and shape of the fitted curve.
SMILES,Potency,"activity change, negative = inhibition"
CCCCSCCCNC(=O)c1cn(CC)c2ccc(S(=O)(=O)N(C)C3CCCCC3)cc2c1=O,"inconclusive: 22.4 µM [inhibitor, partial curve, poor fit]",
O=C(Cn1ccc2cc(S(=O)(=O)N3CCCCCC3)ccc21)NCCc1ccccc1Cl,"inconclusive: 15.8 µM [inhibitor, partial curve]",
COc1cc(Cl)c(C)cc1NC(=O)Cn1cnc2sc(C)c(S(=O)(=O)N3CCCCC3)c2c1=O,"inconclusive: 31.6 µM [inhibitor, single point]",
Cc1noc(NS(=O)(=O)c2ccc(NC(=O)COc3ccccc3Br)cc2)c1C,"inconclusive: 35.5 µM [inhibitor, single point]",
CCOC(=O)c1scc(-c2ccc(C)cc2)c1S(=O)(=O)Nc1cc(C)ccc1C,"inconclusive: 35.5 µM [inhibitor, single point]",
CCOC(=O)C1=C(C)NC2=C(C(=O)CC(C)(C)C2)C1c1ccc(-c2ccccc2)cc1 (stereo unspecified),"inconclusive: 19.3 µM [inhibitor, partial curve]",
COc1cc(/C=C/C(=O)O[C@H]2CC[C@]34C[C@]35CC[C@]3(C)[C@@H]([C@H](C)CCC=C(C)C)CC[C@@]3(C)[C@@H]5CC[C@H]4C2(C)C)ccc1O,,inactive: -0.0192%
CC(Nc1ncnc2c1cnn2-c1cccc(Cl)c1)c1ccccc1 (stereo unspecified),,inactive: 2.53%
O=C(NCc1ccc(Cl)cc1)C(=O)NCC(c1cccnc1)N1CCN(c2ccccc2)CC1 (stereo unspecified),"inconclusive: 14.1 µM [inhibitor, partial curve, poor fit]",
CCN(c1ccc(C)cc1C)S(=O)(=O)c1nnc(NC(=O)c2ccc(F)cc2)s1,"inconclusive: 28.2 µM [inhibitor, partial curve, poor fit]",
CC(C)CNc1ccnc(NCc2csc(-c3ccccc3)n2)n1,"inconclusive: 15.3 µM [inhibitor, partial curve]",
Cc1nn(CCC(=O)Nc2cccc(C#N)c2)c(C)c1S(=O)(=O)N1CCC(C)CC1,"inconclusive: 31.6 µM [inhibitor, partial curve, poor fit]",
COc1ccc(OC)c(NC(=O)CN(c2ccccc2OC)S(=O)(=O)c2ccc(C)cc2)c1,"inconclusive: 39.8 µM [inhibitor, single point]",
Cc1csc2nc(COC(=O)c3ccc(NC(=O)c4ccccc4Br)cc3)cc(=O)n12,"inconclusive: 28.2 µM [inhibitor, partial curve, poor fit]",
Cc1ccc(S(=O)(=O)C(CNC(=O)C(=O)NCCc2ccc(F)cc2)c2cccs2)cc1 (stereo unspecified),"inconclusive: 8.91 µM [inhibitor, full curve, poor fit]",
COc1cc(NC(=O)CSc2ccc(-c3sc(C)nc3C)nn2)cc(OC)c1,"inconclusive: 39.8 µM [inhibitor, single point]",
Cc1ccc(-n2ncc3c(N4CCN(Cc5ccccc5)CC4)ncnc32)cc1C,"inconclusive: 14.1 µM [inhibitor, single point]",
O=C(NCCc1csc(-c2ccc(C(F)(F)F)cc2)n1)c1ccccc1Cl,"inconclusive: 39.8 µM [inhibitor, single point]",

SMILES,Potency,"activity change, negative = inhibition"
CC(Cc1cccc(C(F)(F)F)c1)NCCOC(=O)c1ccccc1 (stereo unspecified),,inactive: 2.21%
Cc1cccc(CNC(=O)C2CCN(S(=O)(=O)c3cccc4nonc34)CC2)c1,"inconclusive: 35.5 µM [inhibitor, single point]",
C[C@@]1(C(=O)Nc2ccc(F)nc2)CCCN1c1nc(Nc2cc(C3CC3)[nH]n2)c2cccn2n1,"inconclusive: 7.69 µM [inhibitor, partial curve]",
CCOC(=O)c1c(NC(=O)COc2ccc(OC)cc2)sc(C(=O)N(CC)CC)c1C,active: 11.2 µM,
Cc1ccc(-c2onc(C)c2C)cc1S(=O)(=O)N1CCc2ccccc21,"inconclusive: 20 µM [inhibitor, partial curve, poor fit]",
CN1CCN(c2ccc(-c3nc(-c4ccccc4)no3)cc2[N+](=O)[O-])CC1,"inconclusive: 0.282 µM [inhibitor, full curve, poor fit]",
CCN(CC)c1ccc(NC(=O)C2CCCN(S(=O)(=O)c3ccc4c(c3)oc(=O)n4C)C2)c(C)c1 (stereo unspecified),"inconclusive: 28.2 µM [inhibitor, partial curve, poor fit]",
CCC(Sc1nc2n[nH]c(C)c2c(=N)n1-c1ccc(Br)cc1)C(=O)N(CC)CC (stereo unspecified),"inconclusive: 25.1 µM [inhibitor, partial curve, poor fit]",
CCOC(=O)c1c(S(=O)(=O)N2CCN(c3cc(Cl)ccc3C)CC2)c(C)n(C)c1C,"inconclusive: 39.8 µM [inhibitor, single point]",
CCCCNC(=O)c1ccc(-c2nc(CN3CCc4ccccc43)c(C)o2)cc1,,inactive: -38.3%
Cc1ccc(Nc2c3c(nc4ccccc24)CCC3)cc1F,"inconclusive: 25.1 µM [inhibitor, partial curve, poor fit]",
COc1ccccc1N(CC(=O)NCCSc1ccccc1)S(=O)(=O)c1ccc(C)cc1,"inconclusive: 17.8 µM [inhibitor, partial curve, poor fit]",
COc1cccc(-c2nn(C)c3sc(C(=O)N4CCN(c5cccc(C(F)(F)F)c5)CC4)cc23)c1,"inconclusive: 39.8 µM [inhibitor, single point]",
COc1cccc(CCNC(=O)c2cnc3sc(N4CCCC4)nn3c2=O)c1,"inconclusive: 22.4 µM [inhibitor, partial curve, poor fit]",
CCOC(=O)C1=C(CN(CC)Cc2ccccc2)NC(=O)NC1c1ccc(Cl)cc1 (stereo unspecified),"inconclusive: 22.4 µM [inhibitor, single point]",
CN(CC(=O)N(Cc1ccc(C2CCCCC2)cc1)c1ccc(C(=O)O)c(O)c1)S(=O)(=O)c1c(F)c(F)c(F)c(F)c1F,,inactive: 32.2%
CC(C)OCCCNC(=O)Cn1c(-c2cccs2)cc2cc(F)ccc21,"inconclusive: 39.8 µM [inhibitor, single point]",
COc1cc(C(=O)OCc2cc(=O)n3ccsc3n2)cc(OC)c1OC,"inconclusive: 1 µM [inhibitor, full curve, poor fit]",
